Results as given in publication PMC4534575, “The RNA Helicase DHX34 Activates NMD by Promoting a Transition from the Surveillance to the Decay-Inducing Complex” (Cell Reports, 2014).
These are yes or no findings as the source states them, for the method shown. In cells and extracts the contact can be indirect. Some entries that bind do so weakly or less than the wild type. For some assays here: Sequences can lack the tags named with a protein.

Amino acid sequences for entries named in this document (tags omitted).
UniProt Q9HAU5: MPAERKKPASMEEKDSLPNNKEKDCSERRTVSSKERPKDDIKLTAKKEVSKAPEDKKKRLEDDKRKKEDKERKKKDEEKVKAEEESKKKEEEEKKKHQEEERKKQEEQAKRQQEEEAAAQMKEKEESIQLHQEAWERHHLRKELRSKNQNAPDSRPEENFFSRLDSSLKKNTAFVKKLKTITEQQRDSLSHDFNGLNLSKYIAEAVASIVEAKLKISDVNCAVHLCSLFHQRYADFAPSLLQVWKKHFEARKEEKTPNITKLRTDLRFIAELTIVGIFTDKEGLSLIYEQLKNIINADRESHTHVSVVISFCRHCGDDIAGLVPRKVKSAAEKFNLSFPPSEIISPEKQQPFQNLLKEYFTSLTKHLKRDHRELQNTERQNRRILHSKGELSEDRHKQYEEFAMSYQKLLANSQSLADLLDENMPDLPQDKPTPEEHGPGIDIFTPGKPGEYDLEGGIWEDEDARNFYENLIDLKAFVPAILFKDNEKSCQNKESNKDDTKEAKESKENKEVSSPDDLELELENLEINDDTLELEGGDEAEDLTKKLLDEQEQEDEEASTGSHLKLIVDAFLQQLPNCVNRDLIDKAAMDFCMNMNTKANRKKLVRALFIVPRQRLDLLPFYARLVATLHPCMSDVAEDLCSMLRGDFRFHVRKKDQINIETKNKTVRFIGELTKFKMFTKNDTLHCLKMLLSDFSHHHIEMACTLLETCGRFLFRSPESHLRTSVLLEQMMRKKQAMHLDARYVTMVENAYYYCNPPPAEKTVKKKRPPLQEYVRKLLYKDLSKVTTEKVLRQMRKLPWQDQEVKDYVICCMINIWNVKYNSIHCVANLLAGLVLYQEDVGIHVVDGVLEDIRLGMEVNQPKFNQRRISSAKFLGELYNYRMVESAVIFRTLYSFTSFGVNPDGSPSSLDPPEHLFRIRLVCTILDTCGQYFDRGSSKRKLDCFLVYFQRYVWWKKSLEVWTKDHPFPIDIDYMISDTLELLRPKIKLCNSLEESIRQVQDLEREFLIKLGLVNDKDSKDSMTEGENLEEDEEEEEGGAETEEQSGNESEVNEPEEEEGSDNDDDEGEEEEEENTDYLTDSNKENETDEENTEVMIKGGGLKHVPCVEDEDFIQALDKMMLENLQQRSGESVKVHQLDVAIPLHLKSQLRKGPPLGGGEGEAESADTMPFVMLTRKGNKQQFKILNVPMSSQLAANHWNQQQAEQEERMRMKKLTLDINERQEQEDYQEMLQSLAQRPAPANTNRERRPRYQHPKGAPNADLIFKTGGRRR

How the values were obtained:
[1] = biological target: T1, FLAG-UPF1 (wild-type) (human) (UniProt Q92900); experiment: co-IP; anti-FLAG IP of transiently transfected FLAG-UPF1 (wild-type or mutants) from HEK293T lysate; endogenous partners by western blot; in the absence or presence of RNase A (Figures 2B, S2B); cells also depleted of DHX34 by shRNA, rescued with T7-DHX34, or cotransfected with T7-DHX34
T1 sequence: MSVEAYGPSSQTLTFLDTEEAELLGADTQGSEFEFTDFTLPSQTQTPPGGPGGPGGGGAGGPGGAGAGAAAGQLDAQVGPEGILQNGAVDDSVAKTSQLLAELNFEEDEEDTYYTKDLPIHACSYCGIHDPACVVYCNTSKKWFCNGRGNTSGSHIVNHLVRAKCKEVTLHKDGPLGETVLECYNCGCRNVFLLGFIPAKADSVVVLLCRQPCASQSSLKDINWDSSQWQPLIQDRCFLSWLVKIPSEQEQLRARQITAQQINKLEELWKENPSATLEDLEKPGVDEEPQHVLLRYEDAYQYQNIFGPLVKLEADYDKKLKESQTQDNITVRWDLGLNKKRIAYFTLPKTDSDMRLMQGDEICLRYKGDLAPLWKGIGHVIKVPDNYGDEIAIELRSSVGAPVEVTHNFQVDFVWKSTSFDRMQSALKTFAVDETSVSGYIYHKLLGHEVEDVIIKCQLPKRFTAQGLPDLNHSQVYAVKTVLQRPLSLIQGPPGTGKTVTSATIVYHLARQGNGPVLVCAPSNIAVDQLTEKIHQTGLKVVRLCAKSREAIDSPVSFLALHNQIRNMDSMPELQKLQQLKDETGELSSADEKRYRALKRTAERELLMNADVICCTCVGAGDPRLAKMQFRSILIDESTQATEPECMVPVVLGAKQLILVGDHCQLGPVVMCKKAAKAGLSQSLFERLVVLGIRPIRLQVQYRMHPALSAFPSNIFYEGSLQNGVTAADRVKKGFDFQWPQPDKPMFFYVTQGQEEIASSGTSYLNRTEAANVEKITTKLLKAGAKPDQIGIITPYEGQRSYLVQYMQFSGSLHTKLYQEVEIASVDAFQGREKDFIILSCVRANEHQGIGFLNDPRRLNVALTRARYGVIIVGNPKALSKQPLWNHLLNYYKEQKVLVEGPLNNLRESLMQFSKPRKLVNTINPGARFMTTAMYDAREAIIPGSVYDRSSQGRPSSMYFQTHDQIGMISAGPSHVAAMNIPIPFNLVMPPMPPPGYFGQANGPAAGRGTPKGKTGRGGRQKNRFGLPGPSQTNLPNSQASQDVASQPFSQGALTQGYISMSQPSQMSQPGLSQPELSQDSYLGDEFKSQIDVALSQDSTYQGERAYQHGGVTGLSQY

[2] = biological target: T2, endogenous UPF1 (human (endogenous in HEK293T)) (UniProt Q92900); experiment: co-IP; endogenous proteins immunoprecipitated from HEK293T cells (Figure S2C; endogenous UPF1 complexes from cells depleted of DHX34 or control, Figure 5D)
T2 sequence: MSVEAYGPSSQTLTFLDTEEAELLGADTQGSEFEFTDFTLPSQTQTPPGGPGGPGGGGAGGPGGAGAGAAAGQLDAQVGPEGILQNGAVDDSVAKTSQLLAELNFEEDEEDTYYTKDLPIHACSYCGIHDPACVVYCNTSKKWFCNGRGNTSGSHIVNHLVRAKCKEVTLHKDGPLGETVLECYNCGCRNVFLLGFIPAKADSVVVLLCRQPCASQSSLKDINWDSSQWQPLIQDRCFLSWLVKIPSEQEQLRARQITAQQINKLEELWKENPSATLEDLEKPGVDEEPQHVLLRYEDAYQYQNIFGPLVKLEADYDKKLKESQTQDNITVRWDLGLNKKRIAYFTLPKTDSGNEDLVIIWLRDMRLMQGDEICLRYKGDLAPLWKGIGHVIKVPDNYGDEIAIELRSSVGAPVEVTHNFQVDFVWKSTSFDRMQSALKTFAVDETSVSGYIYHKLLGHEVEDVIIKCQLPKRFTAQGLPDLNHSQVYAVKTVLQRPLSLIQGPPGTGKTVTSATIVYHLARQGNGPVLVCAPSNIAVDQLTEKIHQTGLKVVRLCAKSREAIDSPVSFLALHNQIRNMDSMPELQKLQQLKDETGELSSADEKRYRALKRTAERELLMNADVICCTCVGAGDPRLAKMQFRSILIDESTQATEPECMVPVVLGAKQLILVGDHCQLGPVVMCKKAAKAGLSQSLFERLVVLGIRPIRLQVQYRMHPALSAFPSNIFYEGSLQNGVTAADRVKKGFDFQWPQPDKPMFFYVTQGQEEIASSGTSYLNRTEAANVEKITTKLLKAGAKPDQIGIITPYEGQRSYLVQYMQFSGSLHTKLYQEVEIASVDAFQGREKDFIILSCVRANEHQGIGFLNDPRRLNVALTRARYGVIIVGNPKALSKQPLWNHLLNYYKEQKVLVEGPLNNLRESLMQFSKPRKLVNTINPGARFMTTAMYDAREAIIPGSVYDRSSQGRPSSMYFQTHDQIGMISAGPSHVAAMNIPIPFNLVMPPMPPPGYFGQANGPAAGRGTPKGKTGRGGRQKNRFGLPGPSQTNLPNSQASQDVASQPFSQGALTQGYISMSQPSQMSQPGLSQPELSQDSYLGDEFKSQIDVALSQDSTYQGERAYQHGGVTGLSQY

endogenous UPF2 (from UniProt Q9HAU5 1-1272)
binding [1]: binds | binding [2]: binds
